# The other results are listed elsewhere or left out.
# Columns and labels:
# Assay in all cases: glycan array binding signal (z-score within array); higher = stronger binding
# Details in all cases: glycan notation: IUPAC condensed, linker removed
# [1] = molecular target: Fuc(a1-2)Gal
# Method in brief: (§1)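 Arrays were curated from the Consortium for Functional Glycomics database, 3228 in total, and kept only where the protein sequence was available. Binding is expressed as a within-array Z-score. This score was averaged across arrays of the same protein sequence at different concentrations or buffers and across linkers, and negative values can be read as non-binding.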
# [2] = molecular target: Fuc(a1-2)Gal(b1-3)GalNAc
# Method in brief: as §1
# [3] = molecular target: Fuc(a1-2)Gal(b1-3)GalNAc(a1-3)[Fuc(a1-2)]Gal(b1-4)Glc
# Method in brief: as §1
# [4] = molecular target: Fuc(a1-2)Gal(b1-3)GalNAc(a1-3)[Fuc(a1-2)]Gal(b1-4)GlcNAc
# Method in brief: as §1
# [5] = molecular target: Fuc(a1-2)Gal(b1-3)GalNAc(b1-3)Gal
# Method in brief: as §1
# [6] = molecular target: Fuc(a1-2)Gal(b1-3)GalNAc(b1-3)Gal(a1-4)Gal(b1-4)Glc
# Method in brief: as §1
# [7] = molecular target: Fuc(a1-2)Gal(b1-3)GalNAc(b1-4)[Neu5Ac(a2-3)]Gal(b1-4)Glc
# Method in brief: as §1
# [8] = molecular target: Fuc(a1-2)Gal(b1-3)GlcNAc
# Method in brief: as §1
# [9] = molecular target: Fuc(a1-2)Gal(b1-3)GlcNAc(b1-2)Man(a1-3)[Fuc(a1-2)Gal(b1-3)GlcNAc(b1-2)Man(a1-6)]Man(b1-4)GlcNAc(b1-4)GlcNAc
# Method in brief: as §1
# [10] = molecular target: Fuc(a1-2)Gal(b1-3)GlcNAc(b1-2)Man(a1-3)[Fuc(a1-2)Gal(b1-3)GlcNAc(b1-2)Man(a1-6)]Man(b1-4)GlcNAc(b1-4)[Fuc(a1-6)]GlcNAc
# Method in brief: as §1
# [11] = molecular target: Fuc(a1-2)Gal(b1-3)GlcNAc(b1-3)Gal(b1-4)Glc
# Method in brief: as §1
# [12] = molecular target: Fuc(a1-2)Gal(b1-3)GlcNAc(b1-3)GalNAc
# Method in brief: as §1
# [13] = molecular target: Fuc(a1-2)Gal(b1-3)GlcNAc(b1-3)[Fuc(a1-2)Gal(b1-3)GlcNAc(b1-6)]GalNAc
# Method in brief: as §1
# [14] = molecular target: Fuc(a1-2)Gal(b1-3)GlcNAc(b1-3)[Gal(b1-4)GlcNAc(b1-6)]Gal(b1-4)Glc
# Method in brief: as §1
# [15] = molecular target: Fuc(a1-2)Gal(b1-3)GlcNAc(b1-3)[Neu5Ac(a2-6)Gal(b1-4)GlcNAc(b1-6)]Gal(b1-4)Glc
# Method in brief: as §1
# [16] = molecular target: Fuc(a1-2)Gal(b1-3)GlcNAc6S
# Method in brief: as §1
# [17] = molecular target: Fuc(a1-2)Gal(b1-3)[Fuc(a1-4)]GlcNAc
# Method in brief: as §1
# [18] = molecular target: Fuc(a1-2)Gal(b1-3)[Fuc(a1-4)]GlcNAc(b1-2)Man(a1-3)[Fuc(a1-2)Gal(b1-3)[Fuc(a1-4)]GlcNAc(b1-2)Man(a1-3)]Man(b1-4)GlcNAc(b1-4)GlcNAc
# Method in brief: as §1
# [19] = molecular target: Fuc(a1-2)Gal(b1-3)[Fuc(a1-4)]GlcNAc(b1-2)Man(a1-3)[Fuc(a1-2)Gal(b1-3)[Fuc(a1-4)]GlcNAc(b1-2)Man(a1-6)]Man(b1-4)GlcNAc(b1-4)[Fuc(a1-6)]GlcNAc(b1-4)[Fuc(a1-6)]GlcNAc
# Method in brief: as §1
# [20] = molecular target: Fuc(a1-2)Gal(b1-3)[Fuc(a1-4)]GlcNAc(b1-3)[Fuc(a1-3)[Gal(b1-4)]GlcNAc(b1-6)]Gal(b1-4)Glc
# Method in brief: as §1
# [21] = molecular target: Fuc(a1-2)Gal(b1-3)[Fuc(a1-4)]GlcNAc(b1-3)[Gal(b1-4)GlcNAc(b1-6)]Gal(b1-4)Glc
# Method in brief: as §1
# [22] = molecular target: Fuc(a1-2)Gal(b1-4)Glc
# Method in brief: as §1
# [23] = molecular target: Fuc(a1-2)Gal(b1-4)Glc6S
# Method in brief: as §1
# [24] = molecular target: Fuc(a1-2)Gal(b1-4)GlcNAc
# Method in brief: as §1
# [25] = molecular target: Fuc(a1-2)Gal(b1-4)GlcNAc(b1-2)Man
# Method in brief: as §1
# [26] = molecular target: Fuc(a1-2)Gal(b1-4)GlcNAc(b1-2)Man(a1-3)[Fuc(a1-2)Gal(b1-4)GlcNAc(b1-2)Man(a1-6)]Man(b1-4)GlcNAc(b1-4)GlcNAc
# Method in brief: as §1
# [27] = molecular target: Fuc(a1-2)Gal(b1-4)GlcNAc(b1-2)Man(a1-3)[Fuc(a1-2)Gal(b1-4)GlcNAc(b1-2)Man(a1-6)]Man(b1-4)GlcNAc(b1-4)[Fuc(a1-6)]GlcNAc
# Method in brief: as §1
# [28] = molecular target: Fuc(a1-2)Gal(b1-4)GlcNAc(b1-2)[Fuc(a1-2)Gal(b1-4)GlcNAc(b1-4)]Man(a1-3)[Fuc(a1-2)Gal(b1-4)GlcNAc(b1-2)Man(a1-6)]Man(b1-4)GlcNAc(b1-4)GlcNAc
# Method in brief: as §1
# [29] = molecular target: Fuc(a1-2)Gal(b1-4)GlcNAc(b1-3)Gal(b1-4)GlcNAc
# Method in brief: as §1
# [30] = molecular target: Fuc(a1-2)Gal(b1-4)GlcNAc(b1-3)Gal(b1-4)GlcNAc(b1-2)Man(a1-3)[Fuc(a1-2)Gal(b1-4)GlcNAc(b1-3)Gal(b1-4)GlcNAc(b1-2)Man(a1-6)]Man(b1-4)GlcNAc(b1-4)GlcNAc
# Method in brief: as §1
# [31] = molecular target: Fuc(a1-2)Gal(b1-4)GlcNAc(b1-3)Gal(b1-4)GlcNAc(b1-3)Gal(b1-4)GlcNAc
# Method in brief: as §1
# [32] = molecular target: Fuc(a1-2)Gal(b1-4)GlcNAc(b1-3)GalNAc
# Method in brief: as §1
# [33] = molecular target: Fuc(a1-2)Gal(b1-4)GlcNAc(b1-3)[Fuc(a1-2)Gal(b1-4)GlcNAc(b1-6)]GalNAc
# Method in brief: as §1
# [34] = molecular target: Fuc(a1-2)Gal(b1-4)GlcNAc(b1-3)[Fuc(a1-3)[Gal(b1-4)]GlcNAc(b1-6)]Gal(b1-4)Glc
# Method in brief: as §1
# [35] = molecular target: Fuc(a1-2)Gal(b1-4)GlcNAc(b1-6)GalNAc
# Method in brief: as §1
# [36] = molecular target: Fuc(a1-2)Gal(b1-4)GlcNAc6S
# Method in brief: as §1
# [37] = molecular target: Fuc(a1-2)Gal(b1-4)[Fuc(a1-3)]GlcNAc
# Method in brief: as §1
binder,measurement,setting,value
Epa3to1 (Candida glabrata) (protein) MGSSHHHHHHSSGLVPRGSHMKRELSSQNPFGYPIGCSPQDVAIIPGLTMELYSYPIVSGTPPNCYDASYVDPEYPRTGYLKRKMVGKSTGVTGNLNYKYSVEKACMVKYGNLPAGYNYNEPLTVSNFTMILYGYFKAQTTGLHTFFVNADDLLYINFGAGNAFDCCKREDSKTKLGEYVAYDIWHVDSSKNKVSLFLEKDLYYPIRMFFNNREYDSSLDLSFSVNGATDQISDFSGYLYSVPDQPDTCPAHIGYDTTCR,glycan array binding signal (z-score),[1],-0.763
same,glycan array binding signal (z-score),[2],-0.416
same,glycan array binding signal (z-score),[3],-0.293
same,glycan array binding signal (z-score),[4],-0.516
same,glycan array binding signal (z-score),[5],1.55
same,glycan array binding signal (z-score),[6],-0.161
same,glycan array binding signal (z-score),[7],-0.18
same,glycan array binding signal (z-score),[8],-0.787
same,glycan array binding signal (z-score),[9],0.148
same,glycan array binding signal (z-score),[10],0.146
same,glycan array binding signal (z-score),[11],-0.231
same,glycan array binding signal (z-score),[12],-0.396
same,glycan array binding signal (z-score),[13],0.23
same,glycan array binding signal (z-score),[14],0.221
same,glycan array binding signal (z-score),[15],-0.43
same,glycan array binding signal (z-score),[16],-0.381
same,glycan array binding signal (z-score),[17],-0.064
same,glycan array binding signal (z-score),[18],-0.409
same,glycan array binding signal (z-score),[19],-0.07
same,glycan array binding signal (z-score),[20],-1.59
same,glycan array binding signal (z-score),[21],-0.421
same,glycan array binding signal (z-score),[22],-0.39
same,glycan array binding signal (z-score),[23],-0.843
same,glycan array binding signal (z-score),[24],-0.514
same,glycan array binding signal (z-score),[25],0.029
same,glycan array binding signal (z-score),[26],-0.477
same,glycan array binding signal (z-score),[27],0.022
same,glycan array binding signal (z-score),[28],-0.573
same,glycan array binding signal (z-score),[29],-0.394
same,glycan array binding signal (z-score),[30],-0.372
same,glycan array binding signal (z-score),[31],-0.479
same,glycan array binding signal (z-score),[32],-0.272
same,glycan array binding signal (z-score),[33],0.273
same,glycan array binding signal (z-score),[34],0.165
same,glycan array binding signal (z-score),[35],0.045
same,glycan array binding signal (z-score),[36],-0.404
same,glycan array binding signal (z-score),[37],-0.287
